# About 31,000 (8.9%) of roughly 350,000 compounds were called active. The inconclusive results got no clear call from the source; some entries with a clear call stand among them for comparison. Calls follow the shape of the dose curve; as a rule, active = well fitted inhibition curve with a large enough effect; inconclusive = small, poorly fitted or top-dose-only effect; inactive = no such curve, though single readings can be large or run the other way. Potencies of inconclusive entries are doubtful fits and often do not repeat.
# Biological target: Histone-lysine N-methyltransferase EHMT2 (Homo sapiens) (UniProt Q96KQ7)
# Experiment: qHTS Assay for Inhibitors of Histone Lysine Methyltransferase G9a; also: nearly all actives have a fitted effect of over 75% in size
# Settings: G9a H3K9 monomethylation, AlphaScreen, 2 h; activity, negative = inhibition: at 59 µM (top of the series) unless noted
# In short: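 Chemiluminescent proximity detection of H3K9 monomethylation, read after 10 min bead incubation in the dark. Reaction: 20 nM G9a, 500 nM biotin-H3K9 peptide, 20 uM SAM cofactor, 2 h, room temperature, following 15 min enzyme-compound preincubation.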
# % is scaled to controls: 0 for no effect and ±100 for the full control effect; potency is read from the fitted curve at half-maximal effect; tags tell the direction and shape of the fitted curve.
# Sequence of UniProt Q96KQ7 (Q96KQ7 whole entry, looked up): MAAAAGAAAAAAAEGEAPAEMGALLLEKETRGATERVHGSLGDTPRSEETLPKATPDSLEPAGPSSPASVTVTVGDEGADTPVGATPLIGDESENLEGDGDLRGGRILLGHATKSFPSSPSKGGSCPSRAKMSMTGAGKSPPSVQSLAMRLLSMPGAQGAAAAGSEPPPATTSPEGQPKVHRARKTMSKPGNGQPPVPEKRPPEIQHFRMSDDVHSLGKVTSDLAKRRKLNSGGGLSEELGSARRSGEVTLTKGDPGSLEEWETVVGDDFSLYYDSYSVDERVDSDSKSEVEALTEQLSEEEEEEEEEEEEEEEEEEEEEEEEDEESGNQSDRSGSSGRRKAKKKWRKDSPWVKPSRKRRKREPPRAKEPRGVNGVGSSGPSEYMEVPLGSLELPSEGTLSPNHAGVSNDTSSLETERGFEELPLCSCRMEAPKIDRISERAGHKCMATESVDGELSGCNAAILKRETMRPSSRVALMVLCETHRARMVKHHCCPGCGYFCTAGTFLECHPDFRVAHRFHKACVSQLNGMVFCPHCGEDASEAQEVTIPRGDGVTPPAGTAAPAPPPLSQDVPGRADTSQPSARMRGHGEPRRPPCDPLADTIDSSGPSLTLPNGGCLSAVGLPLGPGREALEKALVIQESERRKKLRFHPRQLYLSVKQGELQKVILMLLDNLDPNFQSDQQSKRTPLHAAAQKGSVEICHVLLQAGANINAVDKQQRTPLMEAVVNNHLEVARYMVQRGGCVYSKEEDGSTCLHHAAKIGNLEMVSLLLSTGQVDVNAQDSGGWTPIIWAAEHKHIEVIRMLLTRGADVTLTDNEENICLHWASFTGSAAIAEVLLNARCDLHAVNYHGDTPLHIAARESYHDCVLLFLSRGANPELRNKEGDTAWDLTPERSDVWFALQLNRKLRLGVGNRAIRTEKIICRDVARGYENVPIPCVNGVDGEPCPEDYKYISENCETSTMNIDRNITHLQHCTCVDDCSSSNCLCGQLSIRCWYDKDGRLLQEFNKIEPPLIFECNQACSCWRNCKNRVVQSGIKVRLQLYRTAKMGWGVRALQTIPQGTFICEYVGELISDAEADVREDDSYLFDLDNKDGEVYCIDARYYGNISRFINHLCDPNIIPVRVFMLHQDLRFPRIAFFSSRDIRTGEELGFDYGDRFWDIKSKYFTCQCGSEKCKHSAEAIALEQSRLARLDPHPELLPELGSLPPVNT
Compound,Potency,"activity, negative = inhibition"
Cc1cccc(S(=O)(=O)CC(=O)Nc2nc(-c3ccccc3)cs2)c1,"inconclusive: 89.1 µM [inhibitor, single point]",
COC(=O)c1ccc(C(=O)OC)c(NC(=S)N2CCN(c3ccccc3)CC2)c1,"inconclusive: 70.8 µM [inhibitor, single point]",
CC(C)(O)[C@H]1Cc2cc3ccc(=O)oc3cc2O1,,inactive: -6.82% [at 2.33 µM]
CCN1C(=O)/C(=C/c2nc3ccccc3c(=O)[nH]2)c2ccccc21,,inactive: -1.73%
Cc1cc(OCC(=O)N2CCCCCC2)ccc1[N+](=O)[O-],,inactive: 0.832%
CC(=O)c1sc(NCCOc2ccc(C)cc2)nc1C,active: 50.1 µM,
Cc1sc2nc(C(C)C)nc(SCC(=O)NCc3ccco3)c2c1C,"inconclusive: 56.2 µM [inhibitor, single point]",
Cc1ccc(CNc2ncnc3c2nnn3C)cc1,,inactive: -4.37%
CCc1ccc(CNC(=O)CN2C(=O)CSc3c2c(C)nn3-c2ccccc2)cc1,,inactive: 11.7%
Cc1nn(C(=O)c2ccc(Cl)cc2)c(C)c1S(=O)(=O)N1CCOCC1,,inactive: -43.7%
CCCOc1ccc(-c2nc(C#N)c(N3CCN(CC)CC3)o2)cc1,"inconclusive: 44.7 µM [inhibitor, partial curve, poor fit]",
COc1ccc(-c2nc(CS(=O)CC(=O)NCc3ccc(F)cc3)c(C)o2)cc1 (stereo not drawn),"inconclusive: 89.1 µM [inhibitor, single point]",
CCN(CC)S(=O)(=O)c1ccc2[nH]c(=O)cc(C(=O)NCc3ccccc3)c2c1,"inconclusive: 35.5 µM [inhibitor, single point]",
O=C(O)c1ccccc1NCc1ccsc1,,inactive: -26.4% [at 102 µM]
CCOC(=O)c1c(Nc2ccc(F)cc2)nnc(-c2ccccc2)c1-c1ccccc1,"inconclusive: 6.31 µM [inhibitor, partial curve, poor fit]",
CC(C)(C)OC(=O)N1CCC(c2c(C(=O)N3CCN(c4ccccc4)CC3)cnn2-c2ccccc2)CC1,"inconclusive: 31.6 µM [inhibitor, single point]",
Cc1cccc(Oc2cc(NC(=O)c3ccccc3)cc([N+](=O)[O-])c2)c1,"inconclusive: 39.8 µM [inhibitor, full curve, poor fit]",
CCOC(=O)c1ccc(NC(=S)N(CCCN2CCCC2)Cc2ccco2)cc1,active: 56.2 µM,
COc1ccc(C(=O)/C(Br)=C/C(=O)O)cc1,"inconclusive: 0.891 µM [inhibitor, full curve, poor fit]",
Cc1cccc[n+]1CC(=O)c1ccc2c(c1)OCCO2,,inactive: 34.4%
COc1ccc(CNCC(=O)Nc2sccc2C#N)cc1,active: 28.2 µM,
CN1CCN(c2ncc3nc(CCc4ccccc4)c(=O)n(C4CC4)c3n2)CC1,,inactive: 6.06% [at 0.501 µM]
O=C(N/N=C1\CCCc2ccccc21)c1ccc([N+](=O)[O-])cc1,"inconclusive: 25.1 µM [inhibitor, single point]",
COc1ccc(Nc2ccccc2NC(=O)c2ccccc2Br)cc1,"inconclusive: 22.4 µM [inhibitor, full curve]",
CS(=O)(=O)c1ccc2nc(NC(=O)C3C4C=CC(C4)C3C(=O)O)sc2c1 (stereo not drawn),"inconclusive: 56.2 µM [inhibitor, partial curve, poor fit]",

Compound,Potency,"activity, negative = inhibition"
CCn1c(C(O)c2ccc(C)cc2)nc2ccccc21 (stereo not drawn),"inconclusive: 89.1 µM [inhibitor, single point]",
CC1(C)SC(=S)N(/N=C/c2cccnc2)C1N(O)C(=O)Nc1ccccc1 (stereo not drawn),,inactive: -6.2% [at 102 µM]
CN(C)CCn1c2c(c(SCC(=O)Nc3ccc4c(c3)OCCO4)nc1=O)CCCC2,"inconclusive: 89.1 µM [inhibitor, partial curve, poor fit]",
CCS(=O)(=O)c1ncc(Cl)c(C(=O)Nc2ccc(S(=O)(=O)N3CCCC(C)C3)cc2)n1 (stereo not drawn),active: 79.4 µM,
O=C(OCC(=O)N1CCN(C(=O)c2ccco2)CC1)c1cc(-c2ccccc2)nc2ccccc12,"inconclusive: 39.8 µM [inhibitor, single point]",
CCCN(C(=O)c1cc2ccc3cccnc3c2[nH]1)c1ccc(F)cc1,"inconclusive: 3.16 µM [inhibitor, single point]",
CCOC(=O)c1c(NC(=O)C2C3C=CC(C3)C2C(=O)O)sc2c1CCC(CC)C2 (stereo not drawn),,inactive: -6.4%
CCN(CC)C(=O)N1c2ccccc2C=Cc2ccccc21,,inactive: 24.3% [at 102 µM]
CCOC(=O)c1cc(-c2ccc(C)o2)n[nH]1,,inconclusive: -56.6% [inhibitor]
Nc1c(NCCN2CCOCC2)c2ccccc2oc1=O,"inconclusive: 0.251 µM [inhibitor, full curve, poor fit]",
Cc1nc(SCC(=O)Nc2nccs2)c(C#N)c(C)c1C,"inconclusive: 3.16 µM [inhibitor, single point]",
CCc1ccc(-c2[nH]nc3nc(-c4ccc(OC)cc4)cc(C(=O)NCCCOC)c23)cc1,,inactive: -14.4%
CC1(C)NC(=O)N(CCOCCOc2ccc3ccccc3c2Br)C1=O,"inconclusive: 79.4 µM [inhibitor, single point]",
O=C(NCc1ccccn1)C1CCCCC1,,inactive: 3.6% [at 102 µM]
COC(=O)c1ccc(/C=N/N2CCN(Cc3ccccc3Cl)CC2)cc1,,inactive: 0.561% [at 102 µM]
COc1ccc(C(=O)NCC(=O)N2CCN(c3ncccn3)CC2)cc1OC,,inactive: 25.2% [at 2.33 µM]
O=C1NN(c2ccccc2)C(=O)/C1=C\c1cccn1-c1ccc(Cl)c([N+](=O)[O-])c1,,inactive: -18.4% [at 102 µM]
CCOC(=O)c1c(C(C#N)C#N)cc(C)nc1C,"inconclusive: 89.1 µM [inhibitor, single point]",
CCOC(=O)CSc1nnc2n(Cc3ccccc3)c(=O)c3c4c(sc3n12)CCC4,active: 39.8 µM,
Cc1ccc(O)c(N=Nc2ccc(S(=O)(=O)N3CCOCC3)cc2)c1,,inactive: -31% [at 12.7 µM]
CCCCN1Cc2c(nc3cc(-c4ccccc4)[nH]n3c2=O)C1=O,"inconclusive: 44.7 µM [inhibitor, partial curve]",
CC(=O)Nc1ccc(-n2c(CCC(=O)O)ccc2-c2ccc(Br)cc2)cc1,"inconclusive: 25.1 µM [inhibitor, single point]",
N/C(=N\N=C/c1ccc(F)cc1)N/N=C\c1ccc(F)cc1,active: 50.1 µM,
O=C(OCC(=O)N1CCOCC1)c1ccccc1SCC(=O)N1CCCC1,"inconclusive: 6.31 µM [inhibitor, single point]",
COc1ccc(CNC(=O)Cc2c(C)c3c(cc(C)c4c(C)coc43)oc2=O)cc1OC,,inactive: 1.73%

Compound,Potency,"activity, negative = inhibition"
CN(C)CCCOC(=O)C1c2ccccc2Oc2ccccc21,"inconclusive: 28.2 µM [inhibitor, single point]",
COC(=O)c1c(NC(=O)c2c(C)noc2C)sc2c1CCCCCC2,,inactive: 8.37%
Nc1nnc(SCC(=O)Nc2cccc(S(=O)(=O)N3CCCCC3)c2)s1,"inconclusive: 10 µM [inhibitor, partial curve, poor fit]",
CN(CC(=O)O)c1ccc(C(F)(F)F)cc1[N+](=O)[O-],"inconclusive: 44.7 µM [inhibitor, partial curve, poor fit]",
COc1ccc(NC(=O)/C=C/c2ccccc2[N+](=O)[O-])c(OC)c1,,inactive: -9.1%
Cc1csc2nc(SCC(=O)N3CCN(c4ccccc4)CC3)[nH]c(=O)c12,,inactive: -5.39% [at 102 µM]
Nc1nnc(SCC(=O)NC2CCCCCC2)s1,"inconclusive: 39.8 µM [inhibitor, partial curve, poor fit]",
O=C(O)C1Nc2c(O)cc(Cl)c([N+](=O)[O-])c2C2C=CCC12 (stereo not drawn),active: 2.82 µM,
C=CCn1c(CSc2nc3ccccc3s2)nnc1SCC(=O)NCCN1CCOCC1,,inactive: -1.94% [at 102 µM]
CCc1ccc(NC(=O)COn2nnc3ccc(S(=O)(=O)N(C)C)cc32)cc1,"inconclusive: 39.8 µM [inhibitor, single point]",
CCCCc1ccc(NC(=S)NCCN2CCOCC2)cc1,"inconclusive: 22.4 µM [inhibitor, full curve]",
Cc1cc(=O)nc2c3ccccc3n(CC(=O)NC(C)c3ccc4c(c3)OCCO4)n12 (stereo not drawn),,inactive: -0.695%
COc1ccc(NC(=O)CSC2=Nc3ccccc3C3=NC(CCC(=O)NCc4cccs4)C(=O)N23)cc1 (stereo not drawn),,inactive: 8.93%
Cc1ccnc(Sc2ccc([N+](=O)[O-])cn2)n1,,inactive: -0.476% [at 102 µM]
O=C(O)c1ccc(NC2=C(Cl)C(=O)c3ccccc3C2=O)cc1,"inconclusive: 25.1 µM [inhibitor, single point]",
Cc1ccc(NC(=O)CSc2nnc(-c3cc4occc4n3C)n2-c2ccccc2C)c(Cl)c1,"inconclusive: 8.91 µM [inhibitor, partial curve, poor fit]",
CCOC(=O)[C@H]1[C@H]2COc3ccc(Cl)cc3[C@@H]2N2C(=O)CN(CC3CCCO3)C(=O)[C@@]12C (stereo partly drawn),,inactive: 6.19% [at 0.501 µM]
O=C(Nc1cccc(S(=O)(=O)Nc2ccc(Cl)cc2)c1)c1cc2c(s1)CCCC2,"inconclusive: 70.8 µM [inhibitor, partial curve, poor fit]",
COCCCNCCOCCOc1ccc(C)cc1Br,"inconclusive: 25.1 µM [inhibitor, single point]",
COc1cc(CNc2ccc(N3CCN(C(C)=O)CC3)cc2)ccc1OCc1ccc(F)cc1,active: 3.98 µM,
COc1ccccc1N1CCN(C(=O)c2cc(-c3ccc(C)cc3)on2)CC1,"inconclusive: 1.58 µM [inhibitor, full curve, poor fit]",
CC12CN3CC(=O)N4CC5(C)CN(CC(C)(C4)C5=O)C(=O)CN(C1)CC(C)(C3)C2=O,active: 35.5 µM,
COc1ccc(NC(=O)CN2CCC(C(N)=O)(N3CCCCC3)CC2)c(OC)c1,,inactive: -0.764% [at 102 µM]

# — PubChem BioAssay AID504332 (National Center for Advancing Translational Sciences (NCATS), 2011)
